Test results taken from PubChem BioAssay AID485281 (National Center for Advancing Translational Sciences (NCATS), 2010).
Among all 350,000 compounds or so, about 260 (0.074%) were called active. Inconclusive means that the source gave no clear call. Such entries were picked first, then a sample of the others. Calls come from the whole dose curve; as a rule, active = well fitted inhibition curve with a large enough effect; inconclusive = small, poorly fitted or top-dose-only effect; inactive = no such curve, though single readings can be large or run the other way. Potencies beside an inconclusive call are fits to weak or partial responses and may not hold up.

These compounds were tested against Ferritin light chain (Equus caballus) (UniProt P02791) (assay: qHTS Assay for Identification of Novel General Anesthetics). Settings: apoferritin/1-aminoanthracene competitive binding, fluorescence; series mostly up to 77.5 µM.
UniProt P02791, sequence (P02791 whole entry, looked up): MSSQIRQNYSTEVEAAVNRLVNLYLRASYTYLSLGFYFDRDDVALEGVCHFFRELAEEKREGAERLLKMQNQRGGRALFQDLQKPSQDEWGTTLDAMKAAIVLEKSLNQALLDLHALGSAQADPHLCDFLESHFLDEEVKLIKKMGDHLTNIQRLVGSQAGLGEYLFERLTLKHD
How it was run: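 In PBS, apoferritin at 10 uM is loaded with 1-AMA from a 50% saturated solution. After 10 min of compound exposure at ambient temperature, reduced 535 nm fluorescence indicates probe displacement.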
Note: nearly all actives have a fitted effect of over 20% in size.
Potency is the fitted concentration of half-maximal effect; tags give direction and shape of the fitted curve.

Question: With `Cc1cccc(C(C)C)c1NC(=O)COC(=O)Cc1ccsc1` as the compound, how does the Potency read?
Answer: inactive

Question: `CC(C)c1ccc(S(=O)(=O)c2nnn3c2nc(NCC2CCCO2)c2ccccc23)cc1` (centres undefined) was tested. Which Potency did it give?
Answer: inactive

Question: For `COc1ccc(-c2cn[nH]c2-c2ccc(OCc3ccccc3)cc2O)cc1OC`, which Potency is on record?
Answer: inconclusive: 15.8 µM [inhibitor, partial curve]

Question: Which Potency does the source give for `CCCCCOC(=O)c1[nH]c2c(c1C)C(=O)C(C(=O)OC)C(C)C2` (centres undefined) here?
Answer: inconclusive: 56.2 µM [inhibitor, single point]

Question: How did the Potency turn out when `COc1ccc(CC(=O)N2CC(C)CC(C)C2)cc1` (centres undefined) was run?
Answer: inconclusive: 39.8 µM [inhibitor, partial curve]

Question: Which Potency does the source give for `C#CC(C)(CC)NC(=O)Cn1nnc(-c2cccc(C(F)(F)F)c2)n1` (centres undefined) here?
Answer: inconclusive: 20 µM [inhibitor, partial curve]

Question: How did the Potency turn out when `Cc1ccc2c(c1)C(Cc1ccccc1F)C(=O)N2` (centres undefined) was run?
Answer: inconclusive: 31.6 µM [inhibitor, partial curve]

Question: With `COCC1CCN(C(=O)c2ccc3oc(CCCc4ccccc4)nc3c2)C1` (centres undefined) as the compound, how does the Potency read?
Answer: inactive

Question: Which Potency does the source give for `Cc1cccc(NC(=O)c2ccc(COc3ccc(Cl)cc3Cl)o2)n1` here?
Answer: inconclusive: 7.08 µM [inhibitor, full curve]

Question: Which Potency does the source give for `Cc1nnc(N2CCC(C(=O)N3CCCCCC3)CC2)c2nn(-c3ccc(Cl)cc3)c(C)c12` here?
Answer: inconclusive: 6.31 µM [inhibitor, full curve]

Question: For `CN(Cc1ccc(F)cc1)C(=O)c1cc(COc2ccc(-n3cncn3)cc2)on1`, which Potency is on record?
Answer: inconclusive: 17.8 µM [inhibitor, partial curve]

Question: `COc1ccc2c(c1)CCc1c(C(=O)N3CCOCC3)noc1-2` was tested. Which Potency did it give?
Answer: inactive

Question: Which Potency does the source give for `CCOC(=O)c1ccc2nc(C)c(CCC(C)=O)c(Cl)c2c1` here?
Answer: inconclusive: 35.5 µM [inhibitor, single point]

Question: With `CC1(C)CN2C(=O)c3ccccc3C2(C)S1` (centres undefined) as the compound, how does the Potency read?
Answer: inconclusive: 31.6 µM [inhibitor, partial curve]

Question: For `c1ccc2sc(SCc3ccc(-c4nnco4)cc3)nc2c1`, which Potency is on record?
Answer: inconclusive: 15.8 µM [inhibitor, partial curve]

Question: How did the Potency turn out when `Cc1ccc(-c2noc(CN(C(=O)Cc3ccccc3)C(C)C)n2)cc1` was run?
Answer: inconclusive: 35.5 µM [inhibitor, single point]

Question: Which Potency does the source give for `Cc1nn2c(=O)cc(COC(=O)c3cccc(NC(=O)CCc4ccccc4)c3)nc2s1` here?
Answer: inconclusive: 28.2 µM [inhibitor, partial curve]

Question: `Cc1cc(NC(=O)CSc2ccc3c(c2)OCCO3)no1` was tested. Which Potency did it give?
Answer: inconclusive: 28.2 µM [inhibitor, partial curve]

Question: Which Potency does the source give for `O=C(CCS(=O)NCc1ccccc1)NCc1ccccc1` (centres undefined) here?
Answer: inactive
